Results as given in the supplement of paper PMC10369915.
The list shows a part of the results. Rule as the data show it: active = 3.2 or more and inactive = the rest. Most of these values are background signal.

Assays:
Test in all cases: enrichment score (SH2-bound / input frequency) (ratio); bacterial display of known human phosphotyrosine sites (pTyr-Var adds point mutants) read by sequencing; higher = stronger binding; tyrosines were phosphorylated by kinases first
Conditions in all cases: peptide library: Human pTyr
SHP2 C-SH2 domain E139D = target: SHP2 C-SH2 domain E139D
[1] = target: SHP2 C-SH2 domain wild-type
SHP2 N-SH2 domain L43F = target: SHP2 N-SH2 domain L43F
SHP2 N-SH2 domain T42A = target: SHP2 N-SH2 domain T42A
SHP2 N-SH2 domain T52S = target: SHP2 N-SH2 domain T52S
[2] = target: SHP2 N-SH2 domain wild-type

Measured: enrichment score
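Also: displayed peptides selected on beads carrying the immobilized SH2 domain, with library peptides lacking any tyrosine serving as negative controls.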

VEVGSKIYVDDGLIS [KPYM_HUMAN_175]
inactive: SHP2 C-SH2 domain E139D 0.93 | [1] 0.628 | SHP2 N-SH2 domain L43F 0.634 | SHP2 N-SH2 domain T42A 0.597 | SHP2 N-SH2 domain T52S 0.727 | [2] 0.539

IISRIKSYSFPKPGH [KSYK_HUMAN_296]
inactive: SHP2 C-SH2 domain E139D 1.15 | [1] 0.819 | SHP2 N-SH2 domain L43F 0.9 | SHP2 N-SH2 domain T42A 0.806 | SHP2 N-SH2 domain T52S 0.879 | [2] 1.14

AAPECINYAKFSSKS [KSYK_HUMAN_546_YA]
inactive: SHP2 C-SH2 domain E139D 1.25 | [1] 1.43 | SHP2 N-SH2 domain L43F 1.21 | SHP2 N-SH2 domain T42A 0.908 | SHP2 N-SH2 domain T52S 1.23 | [2] 1.15

ELRLRNYYYDVVNGG [KSYK_HUMAN_630]
inactive: SHP2 C-SH2 domain E139D 1.24 | [1] 1.23 | SHP2 N-SH2 domain L43F 1.3 | SHP2 N-SH2 domain T42A 1.24 | SHP2 N-SH2 domain T52S 1.14 | [2] 1.67

DLPDELLYGRAGALA [LANC2_HUMAN_198_YA]
inactive: SHP2 C-SH2 domain E139D 0.567 | [1] 0.506 | SHP2 N-SH2 domain L43F 0.637 | SHP2 N-SH2 domain T42A 0.572 | SHP2 N-SH2 domain T52S 0.533 | [2] 0.527

ADEDEDDYHNPGYLV [LAT_HUMAN_156]
inactive: SHP2 C-SH2 domain E139D 1.06 | [1] 0.874 | SHP2 N-SH2 domain L43F 1.2 | SHP2 N-SH2 domain T42A 1.03 | SHP2 N-SH2 domain T52S 1.24 | [2] 0.907

SLDGSREYVNVSQEL [LAT_HUMAN_220]
inactive: SHP2 C-SH2 domain E139D 1.03 | [1] 0.706 | SHP2 N-SH2 domain L43F 0.881 | SHP2 N-SH2 domain T42A 0.771 | SHP2 N-SH2 domain T52S 0.817 | [2] 0.808

IDPIAMEYYNWGRFS [LAT2_HUMAN_118]
inactive: SHP2 C-SH2 domain E139D 1.1 | [1] 1.19 | SHP2 N-SH2 domain L43F 0.892 | SHP2 N-SH2 domain T42A 0.995 | SHP2 N-SH2 domain T52S 1.08 | [2] 1.11

EDPASSRYQNFSKGS [LAT2_HUMAN_95]
inactive: SHP2 C-SH2 domain E139D 0.812 | [1] 0.715 | SHP2 N-SH2 domain L43F 0.672 | SHP2 N-SH2 domain T42A 0.786 | SHP2 N-SH2 domain T52S 0.628 | [2] 1

SNEDSSDYENVLTAK [LAX1_HUMAN_373]
inactive: SHP2 C-SH2 domain E139D 0.866 | [1] 0.8 | SHP2 N-SH2 domain L43F 0.808 | SHP2 N-SH2 domain T42A 0.901 | SHP2 N-SH2 domain T52S 0.874 | [2] 0.872

FTATEGQYQPQPGGG [LCK_HUMAN_505]
inactive: SHP2 C-SH2 domain E139D 0.519 | [1] 0.487 | SHP2 N-SH2 domain L43F 0.454 | SHP2 N-SH2 domain T42A 0.392 | SHP2 N-SH2 domain T52S 0.471 | [2] 0.503

KQVVESAYEVIKLKG [LDHA_HUMAN_239]
inactive: SHP2 C-SH2 domain E139D 0.967 | [1] 0.866 | SHP2 N-SH2 domain L43F 0.682 | SHP2 N-SH2 domain T42A 0.668 | SHP2 N-SH2 domain T52S 0.683 | [2] 0.91

KMVVESAYEVIKLKG [LDHB_HUMAN_240]
inactive: SHP2 C-SH2 domain E139D 0.98 | [1] 0.72 | SHP2 N-SH2 domain L43F 0.707 | SHP2 N-SH2 domain T42A 0.713 | SHP2 N-SH2 domain T52S 0.922 | [2] 0.84

NDKKSIAYLGVTSIK [LEPR_HUMAN_1079_YA]
inactive: SHP2 C-SH2 domain E139D 1.13 | [1] 0.978 | SHP2 N-SH2 domain L43F 1 | SHP2 N-SH2 domain T42A 1.01 | SHP2 N-SH2 domain T52S 1.1 | [2] 0.997

GRQRWGQYFRNMKRS [LHX3_HUMAN_227]
inactive: SHP2 C-SH2 domain E139D 0.738 | [1] 0.687 | SHP2 N-SH2 domain L43F 0.959 | SHP2 N-SH2 domain T42A 0.768 | SHP2 N-SH2 domain T52S 0.761 | [2] 1.65

DAQEENLYAAVKHTQ [LIRB1_HUMAN_533]
inactive: SHP2 C-SH2 domain E139D 1.01 | [1] 1.09 | SHP2 N-SH2 domain L43F 0.562 | SHP2 N-SH2 domain T42A 0.716 | SHP2 N-SH2 domain T52S 0.769 | [2] 0.551

AGLAHCKYREDAFVT [LMTK1_HUMAN_279_YA]
inactive: SHP2 C-SH2 domain E139D 1.4 | [1] 1.06 | SHP2 N-SH2 domain L43F 1.09 | SHP2 N-SH2 domain T42A 0.985 | SHP2 N-SH2 domain T52S 1.27 | [2] 1.71

FSRYKEDYIETDDKK [LMTK2_HUMAN_295]
inactive: SHP2 C-SH2 domain E139D 1.24 | [1] 1.34 | SHP2 N-SH2 domain L43F 1.03 | SHP2 N-SH2 domain T42A 0.835 | SHP2 N-SH2 domain T52S 1.11 | [2] 0.844

GRYYEGYYAAGPGYG [LPP_HUMAN_301]
inactive: SHP2 C-SH2 domain E139D 1.36 | [1] 1.31 | SHP2 N-SH2 domain L43F 1.11 | SHP2 N-SH2 domain T42A 1.12 | SHP2 N-SH2 domain T52S 1.38 | [2] 1.43

TLQDSDEYSNPAPLP [LPXN_HUMAN_22]
inactive: SHP2 C-SH2 domain E139D 0.56 | [1] 0.595 | SHP2 N-SH2 domain L43F 0.493 | SHP2 N-SH2 domain T42A 0.401 | SHP2 N-SH2 domain T52S 0.752 | [2] 0.537

VEIGNPTYKMYEGGE [LRP1_HUMAN_4473]
inactive: SHP2 C-SH2 domain E139D 0.712 | [1] 0.73 | SHP2 N-SH2 domain L43F 0.728 | SHP2 N-SH2 domain T42A 0.642 | SHP2 N-SH2 domain T52S 0.822 | [2] 0.571

TNYSNPVYAKLYMDG [LRP1B_HUMAN_4562]
active: [1] 3.47
inactive: SHP2 C-SH2 domain E139D 1.28 | SHP2 N-SH2 domain L43F 1.05 | SHP2 N-SH2 domain T42A 2.08 | SHP2 N-SH2 domain T52S 1.08 | [2] 0.718

GFPAIRDYHFVNATE [LRRK2_HUMAN_1485]
inactive: SHP2 C-SH2 domain E139D 0.67 | [1] 0.515 | SHP2 N-SH2 domain L43F 0.589 | SHP2 N-SH2 domain T42A 0.586 | SHP2 N-SH2 domain T52S 0.557 | [2] 0.546

SRSRDDLYDQDDSRD [LSR_HUMAN_535]
inactive: SHP2 C-SH2 domain E139D 0.83 | [1] 1.03 | SHP2 N-SH2 domain L43F 0.769 | SHP2 N-SH2 domain T42A 0.901 | SHP2 N-SH2 domain T52S 1.03 | [2] 1.12

FGMARDIYRASYYRR [LTK_HUMAN_672]
inactive: SHP2 C-SH2 domain E139D 0.557 | [1] 0.716 | SHP2 N-SH2 domain L43F 0.653 | SHP2 N-SH2 domain T42A 0.605 | SHP2 N-SH2 domain T52S 0.495 | [2] 0.445

VVGENTMYAQVFNLQ [LY9_HUMAN_603]
active: [1] 3.68
inactive: SHP2 C-SH2 domain E139D 1.67 | SHP2 N-SH2 domain L43F 0.783 | SHP2 N-SH2 domain T42A 0.968 | SHP2 N-SH2 domain T52S 0.787 | [2] 0.832

IKFSKGKYKCVVEAI [LY96_HUMAN_131]
inactive: SHP2 C-SH2 domain E139D 1.33 | [1] 1.13 | SHP2 N-SH2 domain L43F 1.89 | SHP2 N-SH2 domain T42A 1.29 | SHP2 N-SH2 domain T52S 1.84 | [2] 1.6

VTREEPIYIITEYMA [LYN_HUMAN_316]
inactive: SHP2 C-SH2 domain E139D 1.52 | [1] 1.52 | SHP2 N-SH2 domain L43F 1.56 | SHP2 N-SH2 domain T42A 1.77 | SHP2 N-SH2 domain T52S 1.59 | [2] 2.12

MTALSQGYRMPRVEN [LYN_HUMAN_460]
inactive: SHP2 C-SH2 domain E139D 0.737 | [1] 0.58 | SHP2 N-SH2 domain L43F 0.66 | SHP2 N-SH2 domain T42A 0.654 | SHP2 N-SH2 domain T52S 0.622 | [2] 0.496

ATATEGQYQQQPGGG [LYN_HUMAN_508_YA]
inactive: SHP2 C-SH2 domain E139D 0.786 | [1] 0.617 | SHP2 N-SH2 domain L43F 0.81 | SHP2 N-SH2 domain T42A 0.63 | SHP2 N-SH2 domain T52S 0.67 | [2] 0.681

GKENRLCYAIGATDD [MANF_HUMAN_76_YA]
inactive: SHP2 C-SH2 domain E139D 1.35 | [1] 1.11 | SHP2 N-SH2 domain L43F 1.08 | SHP2 N-SH2 domain T42A 1.23 | SHP2 N-SH2 domain T52S 1.34 | [2] 1.44

VFSTTLAYTKSPKVT [MAP9_HUMAN_12]
inactive: SHP2 C-SH2 domain E139D 0.866 | [1] 0.909 | SHP2 N-SH2 domain L43F 1.03 | SHP2 N-SH2 domain T42A 1.12 | SHP2 N-SH2 domain T52S 0.923 | [2] 1.15

EAVATRWYRAPEIML [MAPK3_HUMAN_210_YA]
inactive: SHP2 C-SH2 domain E139D 0.816 | [1] 0.654 | SHP2 N-SH2 domain L43F 0.65 | SHP2 N-SH2 domain T42A 0.657 | SHP2 N-SH2 domain T52S 0.803 | [2] 0.84

ANYDGKDYNPLLARQ [MARE3_HUMAN_124]
inactive: SHP2 C-SH2 domain E139D 0.652 | [1] 0.588 | SHP2 N-SH2 domain L43F 0.654 | SHP2 N-SH2 domain T42A 0.453 | SHP2 N-SH2 domain T52S 0.565 | [2] 0.862

SQRHGSKYLATASTM [MBP_HUMAN_148]
inactive: SHP2 C-SH2 domain E139D 1.94 | [1] 2.1 | SHP2 N-SH2 domain L43F 2.2 | SHP2 N-SH2 domain T42A 2.09 | SHP2 N-SH2 domain T52S 2.05 | [2] 2.37

SDEDDEVYQVTVAQA [MDM2_HUMAN_276_YA]
inactive: SHP2 C-SH2 domain E139D 1.25 | [1] 1.06 | SHP2 N-SH2 domain L43F 1.09 | SHP2 N-SH2 domain T42A 1.05 | SHP2 N-SH2 domain T52S 1.22 | [2] 1.51
